In PubChem BioAssay AID720709 (National Center for Advancing Translational Sciences (NCATS), 2013):
The campaign covered roughly 360,000 compounds. About 520 (0.14%) were called active. The shares of active, inactive and inconclusive entries below differ from those in the screen. The call rests on the fitted dose curve; in most records, active means well fitted inhibition curve with a large enough effect; inconclusive means small, poorly fitted or top-dose-only effect; inactive means no such curve, though single readings can be large or run the other way. No potency is given beside an inconclusive call; the fits are too rough.

biological target: Rap guanine nucleotide exchange factor 3 (Homo sapiens) (UniProt O95398); experiment: qHTS for Antagonist of cAMP-regulated guanine nucleotide exchange factor 3 (EPAC1): primary screen; settings: EPAC1 GEF assay, Rap1b-BODIPY-GDP exchange fluorescence; activity change, negative = inhibition: at 115 µM (top of the series); further: nearly all actives have a fitted effect of over 50% in size;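 on activity change, negative = inhibition: plate controls were vehicle for no effect and positive control for full effect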
Potency means the concentration at half of the fitted maximal effect; tags describe the fitted curve by direction and shape.

Sequence of UniProt O95398 (O95398 whole entry, looked up): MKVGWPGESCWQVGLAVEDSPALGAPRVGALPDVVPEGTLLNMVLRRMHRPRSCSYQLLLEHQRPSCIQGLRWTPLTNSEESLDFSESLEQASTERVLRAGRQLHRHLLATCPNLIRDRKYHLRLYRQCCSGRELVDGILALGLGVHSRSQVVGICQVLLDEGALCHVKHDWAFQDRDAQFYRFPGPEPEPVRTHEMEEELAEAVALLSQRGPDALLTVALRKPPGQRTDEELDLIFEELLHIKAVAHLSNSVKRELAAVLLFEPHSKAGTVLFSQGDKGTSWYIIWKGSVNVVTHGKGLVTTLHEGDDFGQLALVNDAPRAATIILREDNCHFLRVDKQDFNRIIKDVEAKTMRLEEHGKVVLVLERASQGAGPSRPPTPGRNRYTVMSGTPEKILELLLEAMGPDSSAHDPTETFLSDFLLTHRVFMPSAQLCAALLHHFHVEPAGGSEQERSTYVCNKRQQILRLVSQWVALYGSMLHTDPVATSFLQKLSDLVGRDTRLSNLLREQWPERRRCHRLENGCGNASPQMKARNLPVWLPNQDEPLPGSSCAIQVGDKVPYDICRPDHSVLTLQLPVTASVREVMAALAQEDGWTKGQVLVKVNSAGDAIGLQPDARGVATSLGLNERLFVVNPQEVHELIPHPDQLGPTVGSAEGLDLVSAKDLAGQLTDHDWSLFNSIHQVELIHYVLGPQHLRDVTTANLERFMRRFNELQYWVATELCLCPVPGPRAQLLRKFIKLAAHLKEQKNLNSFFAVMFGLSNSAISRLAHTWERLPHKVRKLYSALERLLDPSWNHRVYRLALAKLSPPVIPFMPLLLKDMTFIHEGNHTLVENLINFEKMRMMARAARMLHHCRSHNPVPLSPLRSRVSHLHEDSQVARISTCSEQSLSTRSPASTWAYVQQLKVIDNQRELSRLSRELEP

Q: With `CCc1nc(SCc2ccc(Br)cc2)n[nH]1` as the compound, how does the Potency read?
A: inactive

Q: How did the Potency turn out when `Cc1ccc(-c2ccc(=O)n(Cc3ccc(F)cc3Cl)n2)cc1` was run?
A: inconclusive [inhibitor, full curve, poor fit]

Q: With `Cc1ccc(C(CC(=O)N2CCNCC2)c2ccccc2)c(O)c1C` (configuration not stated) as the compound, how does the Potency read?
A: inconclusive [inhibitor, full curve, poor fit]

Q: `Cc1nn(C)cc1C(=O)/C=C/c1ccc([N+](=O)[O-])cc1` was tested. Which Potency did it give?
A: inactive

Q: For `CCSc1nc(-c2ccco2)ccc1C#N`, which Potency is on record?
A: inactive

Q: How did the Potency turn out when `CC1=Nc2ccccc2/C1=C/c1sc(=S)n(-c2cccc(C(=O)O)c2)c1O` was run?
A: active: 56.2 µM

Q: Which Potency does the source give for `N#C/C(=C\c1cn[nH]c1-c1ccc(Cl)cc1)C(=O)NC1CC1` here?
A: inconclusive [inhibitor, partial curve]

Q: How did the activity change, negative = inhibition turn out when `C[C@@H]1CN([C@@H](C)CO)C(=O)c2cccc(NS(=O)(=O)c3ccc(F)cc3)c2O[C@H]1CN(C)C(=O)NC1CCCCC1` was run?
A: inconclusive: -19.2% [inhibitor]

Q: For `Cc1cc(NCc2ccccc2)n2ncc(-c3ccccc3)c2n1`, which Potency is on record?
A: inconclusive [inhibitor, single point]

Q: `CCN1C(=O)/C(=C\C(=O)c2cccs2)c2cc(Br)ccc21` was tested. Which Potency did it give?
A: inactive

Q: For `Cc1[nH]c2c(Cl)cccc2c1CCNC(=O)C1CCCCC1C(=O)OCC(F)(F)F` (configuration not stated), which Potency is on record?
A: inconclusive [inhibitor, full curve, poor fit]

Q: For `COCCNc1nc(Nc2ccc(C)cc2C)c2sccc2n1`, which Potency is on record?
A: inactive

Q: How did the Potency turn out when `Cc1ccsc1C(=O)C1CCCN(Cc2cccn2-c2ccc(Cl)cn2)C1` (configuration not stated) was run?
A: inconclusive [inhibitor, partial curve, poor fit]

Q: Which Potency does the source give for `CC(C)(C)OC(=O)NCCCCCc1cn(CC(=O)NCCCCCCCCCCC(=O)N2CCN(C(=O)OC(C)(C)C)CC2)nn1` here?
A: inconclusive [inhibitor, full curve]

Q: For `Cc1cc(C)c(S(=O)(=O)Nc2ccc3c(c2)CCC3)c(C)c1`, which Potency is on record?
A: inconclusive [inhibitor, single point]

Q: Which Potency does the source give for `CCN(CC)S(=O)(=O)c1ccc(N2CCN(S(=O)(=O)c3ccccc3)CC2)nc1` here?
A: inconclusive [inhibitor, single point]

Q: With `CC[n+]1c(/C=C/c2ccc(N(C)C)cc2)ccc2ccccc21` as the compound, how does the Potency read?
A: inconclusive [inhibitor, single point]

Q: Which Potency does the source give for `S=C(Nc1cccnc1)NC1CCCC1` here?
A: inconclusive [inhibitor, single point]

Q: For `O=c1[nH]c(/C=C/c2ccccc2)c([N+](=O)[O-])c(=O)[nH]1`, which Potency is on record?
A: inconclusive [inhibitor, partial curve]

Q: How did the Potency turn out when `COc1ccc(S(=O)(=O)N2CCCCC2c2cc(C(=O)NCc3cccnc3)no2)cc1` (configuration not stated) was run?
A: inactive

Q: For `CCOC(=O)Nc1ccc(NCc2ccc(F)cc2)nc1N`, which Potency is on record?
A: inconclusive [inhibitor, full curve]

Q: With `CCN(CCCNC(=O)Cn1ncc2c([nH]c3ccc(C)cc32)c1=O)c1cccc(C)c1` as the compound, how does the Potency read?
A: inconclusive [inhibitor, full curve, poor fit]

Q: Which Potency does the source give for `Cc1ccc2c(c1)C=CC(C#N)N2C(=O)Oc1ccccc1` (configuration not stated) here?
A: inactive

Q: How did the Potency turn out when `COc1ccccc1N1N=C(C(=O)c2ccccc2)C2C(=O)N(c3ccc(Br)cc3)C(=O)C21` (configuration not stated) was run?
A: inconclusive [inhibitor, full curve]

Q: With `Cc1cc(C)nc(-n2nc(C)cc2NC(=O)c2cccc(S(=O)(=O)N3CCOCC3)c2)n1` as the compound, how does the Potency read?
A: inconclusive [inhibitor, single point]

Q: Which Potency does the source give for `CCOc1ccc(Br)cc1S(=O)(=O)Nc1cccc(S(=O)(=O)N(C)C)c1` here?
A: inconclusive [inhibitor, full curve, poor fit]

Q: Which Potency does the source give for `CCOC(=O)c1c(C)nc2sc3c(=O)n(-c4ccc(C(C)=O)cc4)cnc3c2c1-c1ccc(Cl)cc1` here?
A: inconclusive [inhibitor, partial curve]

Q: For `Cc1ccc2nc(N3C(=O)C(O)=C(C(=O)c4ccco4)C3c3cccs3)sc2c1` (configuration not stated), which Potency is on record?
A: inconclusive [inhibitor, partial curve]

Q: How did the Potency turn out when `O=C(CN1CCCC1)Nc1c(Cl)cccc1Cl` was run?
A: inconclusive [inhibitor, full curve, poor fit]

Q: Which Potency does the source give for `O=C(C[C@H]1CC[C@H]2[C@@H](COC[C@H](O)CN2C(=O)c2ccccn2)O1)N1CCN(c2ccccc2)CC1` here?
A: inactive

Q: With `C[N+](C)(C)CCNC(=O)c1c[nH]c2ccccc12` as the compound, how does the Potency read?
A: inactive

Q: With `Cn1c(=O)[nH]c(=O)c2c1nc([N+](=O)[O-])n2Cc1ccccc1` as the compound, how does the Potency read?
A: inconclusive [inhibitor, partial curve]

Q: `CC(C)COC(=O)N(C)c1ccc(C(O)(C(F)(F)F)C(F)(F)F)cc1` was tested. Which Potency did it give?
A: inconclusive [inhibitor, full curve, poor fit]

Q: How did the Potency turn out when `CCC(=C(c1ccc(OC)cc1)c1ccc(OC)cc1)c1cn(CC(O)CN(CCO)CCO)c2ccccc12` (configuration not stated) was run?
A: inactive

Q: With `Cn1nc(-c2ccc(C(=O)NCCO)cc2)c2ccccc2c1=O` as the compound, how does the Potency read?
A: inactive

Q: Which Potency does the source give for `O=C1c2cc(CO)cc(O)c2C(=O)c2c(O[C@@H]3OC(CO)[C@@H](O)[C@@H](O)[C@@H]3O)cccc21` (some centres not stated) here?
A: inactive

Q: Which Potency does the source give for `COC(=O)c1ccc(COc2cccnc2[N+](=O)[O-])cc1` here?
A: inconclusive [inhibitor, single point]

Q: With `Cc1cc(-c2csc(NC(=O)c3ccc(=O)[nH]c3)n2)c(C)n1Cc1ccco1` as the compound, how does the Potency read?
A: inconclusive [inhibitor, partial curve]

Q: With `CCN(CC)CCCN1C(=O)c2oc3ccccc3c(=O)c2C1c1cccc(OC)c1OC` (configuration not stated) as the compound, how does the Potency read?
A: inconclusive [inhibitor, partial curve, poor fit]

Q: For `Cc1ccccc1NC(=O)CN1C(=O)N/C(=C\c2ccccc2OCc2ccc(C(=O)O)cc2)C1=O`, which Potency is on record?
A: inconclusive [inhibitor, partial curve]

Q: How did the Potency turn out when `CC(=O)c1csc(-c2cccc(-c3nc4ccc(Cl)cn4c3NC3CCCCC3)c2)c1` was run?
A: inconclusive [inhibitor, single point]

Q: For `S=c1[nH]ccn1-c1cccc(Cl)c1`, which activity change, negative = inhibition is on record?
A: inconclusive: -17.1% [inhibitor]
